PMC4336329 (PLoS ONE, 2015)
The campaign covered roughly 310,000 compounds. About 14,000 (4.5%) showed an effect of 50% or more. The effect is printed as a negative number. Some of the results follow. *1 amine or outer side, *2 acyl side, *3 side chain or, on linkers, in order; H or OH if unused. Where a SMILES comes first, the peptide text is derived from it. [ ]: non-standard residue; d: D form. ξ: configuration not given here. ξR = N=C(N)NCCCC(N)C(=O)O; ξF = NC(Cc1ccccc1)C(=O)O; CO = O=C([*:1])[*:2]

Biological target: human ether-à-go-go-related gene (hERG) potassium channel (human, UniProt Q12809)
Sequence (Q12809 whole entry, looked up): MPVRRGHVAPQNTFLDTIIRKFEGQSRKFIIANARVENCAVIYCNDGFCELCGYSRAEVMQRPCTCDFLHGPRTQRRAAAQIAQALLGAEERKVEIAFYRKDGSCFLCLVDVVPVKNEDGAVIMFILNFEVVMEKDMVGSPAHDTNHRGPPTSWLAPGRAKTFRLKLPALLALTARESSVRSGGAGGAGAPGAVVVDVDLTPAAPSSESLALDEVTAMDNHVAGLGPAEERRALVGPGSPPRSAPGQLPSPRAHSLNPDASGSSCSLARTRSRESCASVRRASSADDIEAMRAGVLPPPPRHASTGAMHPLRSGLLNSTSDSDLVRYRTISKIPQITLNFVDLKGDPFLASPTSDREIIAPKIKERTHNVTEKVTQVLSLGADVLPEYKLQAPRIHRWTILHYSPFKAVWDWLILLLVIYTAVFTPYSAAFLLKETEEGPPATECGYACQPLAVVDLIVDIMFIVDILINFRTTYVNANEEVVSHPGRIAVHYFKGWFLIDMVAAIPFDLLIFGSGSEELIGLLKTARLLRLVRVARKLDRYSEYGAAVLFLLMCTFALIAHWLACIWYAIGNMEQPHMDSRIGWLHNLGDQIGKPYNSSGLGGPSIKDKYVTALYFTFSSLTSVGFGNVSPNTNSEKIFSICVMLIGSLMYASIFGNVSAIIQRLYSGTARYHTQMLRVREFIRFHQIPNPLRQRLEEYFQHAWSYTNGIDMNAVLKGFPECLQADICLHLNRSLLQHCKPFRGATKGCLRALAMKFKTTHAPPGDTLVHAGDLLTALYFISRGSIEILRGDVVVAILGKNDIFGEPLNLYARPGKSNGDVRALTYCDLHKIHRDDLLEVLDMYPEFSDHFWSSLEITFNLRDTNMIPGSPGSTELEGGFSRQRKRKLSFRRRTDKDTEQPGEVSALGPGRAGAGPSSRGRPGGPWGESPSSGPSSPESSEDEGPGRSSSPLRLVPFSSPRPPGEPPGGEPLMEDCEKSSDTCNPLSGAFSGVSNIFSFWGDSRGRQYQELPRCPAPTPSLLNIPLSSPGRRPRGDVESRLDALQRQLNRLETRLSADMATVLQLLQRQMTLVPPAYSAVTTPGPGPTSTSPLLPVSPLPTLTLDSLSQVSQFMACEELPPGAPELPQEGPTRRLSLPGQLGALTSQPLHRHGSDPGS
Test: primary screen, population patch clamp on CHO cells stably expressing hERG
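Note: peak tail current of the secondary pulse compared with the same well before compound.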

SMILES	hERG current change (%, negative = inhibition) at 10uM
Cc1noc(C)c1N=Nc1ccccc1C(=O)O	18.2%
CN1CCN(C(c2cccc(Cl)c2)c2ccccc2Cl)CC1.O=C(O)/C=C\C(=O)O (stereo not shown)	-73.1%
Cc1ccc(C(C)(C)C)c(OCCOCCN2CCCC2)c1	-30.2%
O=C(CSc1ccccc1C(=O)O)Nc1ccc2c(c1)OCO2	1.24%
COC(=O)c1sc2nc(C)cc(-c3ccccc3)c2c1N	1.71%
COc1ccc(C2=NOC(C3(S(=O)(=O)c4ccccc4)CC(O)C3)C2)cc1 (stereo not shown)	-6.18%
CC(C)C1C(c2ccccc2)N(C)C(c2ccccc2)CC1(O)c1ccccc1 (stereo not shown)	-11.5%
CS(=O)(=O)c1cccc(-c2nnc(NC(=O)c3ccc(S(=O)(=O)N4CCCC4)cc3)o2)c1	-15.7%
COc1ccc(N=Nc2c(C)[nH]c3ccccc23)cc1	-0.358%
COc1ccc(C(CCN2CCN(c3ccccc3)CC2)c2c(OC)cc(OC)c3c(-c4ccccc4)cc(=O)oc23)cc1 (stereo not shown)	-9.55%
COC(=O)c1c(NC(C)=O)csc1C	8.43%
CC(C)(O)C#Cc1ccc(C(=O)N2CCCC(CNS(=O)(=O)c3cccs3)C2)o1 (stereo not shown)	-1.94%
CN(Cc1ccccc1)C(=O)CCC1CCN(S(=O)(=O)N(C)C)CC1	-18.4%
COc1ccccc1-n1nnnc1SCC(=O)N1CCCC1=O	-11.1%
COCCCNC(=O)c1cc(C)nc2ccc(F)cc12	-5.99%
O=c1c2c(nc3c(-c4cccc5ccccc45)c[nH]n13)CCC2	0.888%
CCc1cccc(C)c1NC(=O)c1ccc2nc(N3CCOCC3)sc2c1	3.13%
O=S(=O)(NCCc1cn2ccccc2n1)c1cccs1	-10.5%
O=C(O)C(=O)O.Oc1ccccc1N1CCN(CC(O)COC2CCCc3ccccc32)CC1 (stereo not shown)	-43.2%
Cc1c(Cl)cccc1NC(=S)NC(=O)c1cncc(Br)c1	17.6%
CCCOc1ccc(-c2nc(SCc3ccccc3)[nH]c(=O)c2C#N)cc1OC	8.95%
CCOC(=O)C1CCN(C(=O)COC(=O)CSc2ccc([N+](=O)[O-])cc2)CC1	-39.5%

SMILES	hERG current change (%, negative = inhibition) at 10uM
OCCOCCNc1ncnc2sc(-c3ccccc3)cc12	-49.1%
O=S(=O)(NCC1CN(S(=O)(=O)c2c(F)cccc2F)C1)c1ccc2c(c1)OCCO2	10.4%
CC1=NN(c2ccccc2)C(=O)/C1=C/c1ccc(-c2ccc(C)c(C(=O)O)c2)o1	2.37%
CCOc1ccc(OCC)c(NC(=O)c2ccc(CNc3c(N4CCCC4)c(=O)c3=O)cc2)c1	5.28%
Cc1nnc(-c2cnn(C)c2N)n1Cc1ccc(Cl)cc1	4.95%
FC(F)(F)c1cnc(N/N=C/c2ccncc2)c(Cl)c1	-12.2%
CN(C)/C=C(\C#N)C(=O)Nc1ccc(F)c(Cl)c1	11.5%
Cc1cc(NC(=O)c2noc3c2CCCCC3)nn1Cc1ccc(Cl)cc1	8.76%
CCc1nn(C(C)C(=O)N2CCN(c3ccccc3)CC2)c(=O)c2cc3occc3n12 (stereo not shown)	-25.3%
CCCCOc1ccc(S(=O)(=O)Nc2cc(OC)ccc2OC)cc1	-2.48%
O=C(OC1CCN(c2ncc(C(F)(F)F)cc2Cl)CC1)c1cccc(C(F)(F)F)c1	14.7%
COc1ccc(Br)cc1CNC(=O)CCCc1cn(C)c2ccccc12	18.5%
Cc1cccc(N2C(=O)CC(N3CCN(c4ccccc4)CC3)C2=O)c1 (stereo not shown)	5.46%
Cc1ccc(N=Nc2cc(C)ccc2N)cc1	2.3%
CCC1C(=O)CC(c2ccc([N+](=O)[O-])cc2)NC1c1ccc([N+](=O)[O-])cc1 (stereo not shown)	-76.3%
CCN(CC(=O)NCc1ccc(F)cc1)C(=O)c1cc2ccccc2o1	-55.9%
CS/C(=N\S(=O)(=O)c1cccs1)Nc1cccc(Cl)c1C	10.8%
Cl.OC(COc1ccccc1)CN1CCC(Cc2ccccc2)CC1 (stereo not shown)	-79.3%
CCCS(=O)(=O)Nc1ccc(-c2cn3c(n2)SCC3)cc1	14%
O=C(COC(=O)c1cncc(Br)c1)Nc1ccc(N2CCCCC2)cc1	-7.4%
O=C(c1cccc(Br)c1)N1CCN(C2=NS(=O)(=O)c3ccccc32)CC1	-65.8%
CCCCCCCNC(=O)C1(CC2CC(c3cccc(Br)c3)=NO2)CCN(C(=O)c2cc(OCC)c(OCC)c(OCC)c2)CC1 (stereo not shown)	4.79%

SMILES	hERG current change (%, negative = inhibition) at 10uM
COc1ccc(/C=N/NC(=O)c2ccccc2NC(=O)c2ccco2)c(OC)c1	15.3%
CC1C(=O)Nc2ccccc2N1C(=O)C1CC1 (stereo not shown)	3.53%
CCN(CC)CCN(C(=O)CCS(=O)(=O)c1ccccc1)c1nc2c(C)cc(C)cc2s1.Cl	3.11%
O=C(COc1ccc(F)cc1Cl)Nc1ccccc1C(=O)N1CCCCC1	-11.8%
CCOC(=O)c1ccc2ncc(C(=O)OCC)c(NCCN(C)C)c2c1	-69.5%
CCCCN1CC(=O)N2[C@H](c3ccc(Cl)cc3)[C@@H]3C(=O)N(CC)C(=O)[C@@H]3[C@]2(Cc2ccccc2)C1=O	-22.8%
CC(C)[C@H](NC(=O)[C@H](CCCN=C(N)N)NC(=O)NC(Cc1ccccc1)C(=O)O)C(=O)NC(C=O)CCCN=C(N)N (stereo partly drawn) ({ξF-CO}-Arg-Val-[ξR]-aldehyde)	13.5%
CCOC(=O)N1CCC(NC(=O)c2cc3c(C)nc4ccccc4c3o2)CC1	-21.9%
CC1(C)CC(=O)C2=C(C1)NC(=S)C(C#N)C21CCCCC1 (stereo not shown)	13.8%
Cc1ccc2c(C)c(C(=O)N3CCCCC3CO)oc2c1C (stereo not shown)	13.2%
COc1cc(/C=N\Nc2nc3ccccc3o2)cc(OC)c1OC	4.65%
NNC(=O)c1oc2nc(-c3ccco3)cc(-c3ccco3)c2c1N	-12.8%
CCOC(=O)N1CCN(C(=S)NC(=O)c2c(-c3c(Cl)cccc3Cl)noc2C)CC1	-8.9%
COc1ccc(-c2cc(C(=O)Nc3ccc(S(=O)(=O)Nc4ncccn4)cc3)c3ccccc3n2)cc1	5.87%
O=C(c1cc([N+](=O)[O-])cc([N+](=O)[O-])c1)N1CCN(C(=O)c2ccco2)CC1	-65.3%
CCN(CC(=O)Nc1c(F)cccc1F)C(=O)/C=C/c1ccc(Br)s1	-27%
CCOC(=O)C(C)(C)N(Cc1cccc(C)c1)S(=O)(=O)c1cccc([N+](=O)[O-])c1	0.203%
NC(=O)c1cc(NC(=O)c2cc(Br)c(Br)s2)cc(C(N)=O)c1	9.04%
Cc1ccc(N)cc1CN1CCCC1=O	2.15%
N#Cc1c(Cl)cccc1Oc1ccc(S(=O)(=O)Nc2ccccc2)cc1	3.79%
CC(C)CC1Nc2ccc(C(=O)NCc3ccc4c(c3)OCO4)cc2NC1=O (stereo not shown)	-5.68%
Cc1ccccc1/C=N/N=C1/NC(=O)CCS1	-0.482%

SMILES	hERG current change (%, negative = inhibition) at 10uM
CCc1cc(=O)oc2c3c(cc(OCC(=O)NCCC(=O)O)c12)OC(C)(C)CC3	20.2%
N#CC1(C#N)CC(C=O)=C(N)C1(C#N)CC(=O)C12CC3CC(CC(C3)C1)C2 (stereo not shown)	16%
Cc1cc(C)c2nc(NCc3ccccc3O)sc2c1	9.24%
Cc1ccc(-c2nc(C)sc2CC(=O)O)cc1	14.7%
CCc1nnc(NC(=O)c2cccc(S(=O)(=O)N3CCc4ccccc43)c2)s1	-9.98%
COc1cc(C(c2c(C)[nH][nH]c2=O)c2c(C)[nH][nH]c2=O)ccc1OS(=O)(=O)c1ccc(C)cc1	17.3%
C=CCOC(=O)C1=C[C@H](c2ccccc2)[C@@H](CCCO)[C@H](OCC)O1	-0.205%
C(=N\n1cnnc1)/c1ccc(N2CCOCC2)s1	1.12%
CN(C)/C=C(\c1cnc(Cl)s1)S(=O)(=O)c1ccccc1	27.8%
CCCCc1ccc(CC(=O)Nc2cc(S(=O)(=O)N3CCOCC3)ccc2O)cc1	3.27%
CN1C(=O)CSC1=Nc1cccc(C(=O)O)c1	11.5%
CC(C)N(CCCNC(=O)C1CCN(C(=O)c2cc3sccc3n2C)CC1)Cc1ccccc1	-23.2%
CC(C)c1ccccc1NC(=O)c1cnccn1	-4.95%
N#Cc1cccc(NC(=O)CSc2n[nH]c(=O)[nH]c2=O)c1	9.07%
O=C(CSc1cccc2cccc(Cl)c12)OCC(=O)N1CCN(C(=O)c2ccco2)CC1	-69.2%
CC(=O)N(C(C)=O)c1nc2nc(C)cc(C)n2n1	-42.3%
O=C(Cc1cccc(C(F)(F)F)c1)NCc1cccc(Cl)c1	-8.74%
Cc1ccc(-n2nc3c(=O)n(CC(=O)NCCc4ccccc4C)nc(C)c3c2C)cc1	-0.158%
CSCc1c(C(=O)Nc2ccccc2N2CCOCC2)oc2ccccc12	6.42%
